# Results reported in PubChem BioAssay AID1030 (National Center for Advancing Translational Sciences (NCATS), 2008).
# The campaign covered roughly 220,000 compounds. About 16,000 (7.3%) were called active. Inconclusive results, whose numbers are uncertain, are shown with a selection of clear calls. The call rests on the fitted dose curve; in most records, active means well fitted inhibition curve with a large enough effect (not every such curve was filed as active); inconclusive means small, poorly fitted or top-dose-only effect, or another doubt; inactive means no such curve, though single readings can be large or run the other way. Potencies of inconclusive entries are left out as doubtful fits.
# Target: Aldehyde dehydrogenase 1A1 (Homo sapiens) (UniProt P00352)
# Sequence of UniProt P00352 (P00352 whole entry, looked up): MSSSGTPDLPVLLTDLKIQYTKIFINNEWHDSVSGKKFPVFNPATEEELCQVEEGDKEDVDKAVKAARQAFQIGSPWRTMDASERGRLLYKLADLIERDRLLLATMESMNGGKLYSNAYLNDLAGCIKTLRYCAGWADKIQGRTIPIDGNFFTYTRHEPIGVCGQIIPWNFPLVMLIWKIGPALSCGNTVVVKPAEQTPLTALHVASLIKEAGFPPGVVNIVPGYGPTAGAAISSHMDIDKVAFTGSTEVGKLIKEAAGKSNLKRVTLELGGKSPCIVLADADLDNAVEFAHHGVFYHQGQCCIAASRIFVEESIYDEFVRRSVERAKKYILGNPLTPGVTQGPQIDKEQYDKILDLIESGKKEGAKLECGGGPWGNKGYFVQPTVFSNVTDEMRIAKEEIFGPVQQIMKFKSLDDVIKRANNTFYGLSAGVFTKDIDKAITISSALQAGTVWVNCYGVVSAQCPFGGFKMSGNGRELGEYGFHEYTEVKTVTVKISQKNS
# Assay: qHTS Assay for Inhibitors of Aldehyde Dehydrogenase 1 (ALDH1A1);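 on activity, negative = inhibition: plate controls were no enzyme wells and a reference inhibitor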
# Settings: Purified ALDH1A1, NADH fluorescence, propionaldehyde substrate; series mostly up to 75.3 µM
# Potency means the concentration at half of the fitted maximal effect; tags describe the fitted curve by direction and shape.
Structure (SMILES),Potency,"activity, negative = inhibition"
C=CCn1c(SCC(=O)Nc2ccc(F)cc2)nc2cc(C(=O)O)ccc2c1=O,inactive,–
Cc1cc(/C=N/NC(N)=S)c(C)n1-c1ccc(Cl)cc1,active: 31.6 µM,–
CCCCOC(=O)CSC1=C(C#N)C(c2ccccc2OCC)C(C#N)C(=O)N1 (configuration not stated),"inconclusive [inhibitor, single point]",–
Cc1cccc(Oc2ccc(N)cc2)c1,"inconclusive [inhibitor, single point]",–
NNC(=O)CNc1cccc(Cl)c1,"inconclusive [inhibitor, single point]",–
COc1ccc(/C=C/C(=O)c2cccs2)cc1OC,"inconclusive [inhibitor, partial curve]",–
CN(C)CCCN(Cc1cc2cc3c(cc2[nH]c1=O)OCO3)C(=S)NCc1ccco1,"inconclusive [inhibitor, single point]",–
c1ccc2c(c1)nc(NC1CCCCC1)c1nncn12,active: 10 µM,–
Cc1cc(C(=O)NC(C)c2ccncc2)cs1 (configuration not stated),inactive,–
COc1ccc(CN(Cc2cccnc2)C(=S)NCCc2ccccc2)cc1OC,"inconclusive [inhibitor, partial curve]",–
O=C(/C=C/c1ccc2c(c1)OCCO2)c1ccc(O)cc1,inactive,–
CCOC(=O)c1cc2occc2n1CC(=O)N1CCN(C(=O)c2ccco2)CC1,"inconclusive [inhibitor, single point]",–
Cc1ccc(S(=O)(=O)N(C)C)cc1NC(=S)NC12CC3CC(CC(C3)C1)C2,"inconclusive [inhibitor, single point]",–
COc1ccc(C(=O)OCC(=O)Nc2ccccc2)cc1[N+](=O)[O-],"inconclusive [inhibitor, single point]",–
COc1ccc(-c2nc(=S)c3c([nH]2)Oc2ccc(C)cc2C3)cc1O,inactive,–
CCn1c(SCC(=O)N/N=C/c2ccc(C)o2)nnc1-c1ccccc1,active: 11.2 µM,–
COc1ccccc1CNC(=O)c1cnccn1,inactive,–
Cc1cccc(-c2ncc(CN3CCC(CO)(CCCc4ccccc4)CC3)cn2)c1,"inconclusive [inhibitor, full curve]",–
CCOC(=O)CCCSc1nnc(CCCCCN2C(=O)c3cccc4cccc(c34)C2=O)o1,"inconclusive [inhibitor, partial curve]",–
CN(C)C(=O)c1ccc(-c2cncnc2N2CCNCC2)cc1,inactive,–
N#Cc1c(C(F)(F)F)cc(-c2ccco2)nc1SCc1ccccn1,"inconclusive [inhibitor, full curve]",–
COCc1cc(C)n(CC(=O)NCc2ccccc2)c(=O)c1C#N,"inconclusive [inhibitor, single point]",–
Cc1ccc(CNS(=O)(=O)c2ccc3c(c2)CCN3C(=O)CCCC(=O)O)cc1,inactive,–
CCN1C(=O)S/C(=C/c2ccsc2)C1=O,"inconclusive [inhibitor, partial curve, poor fit]",–

Structure (SMILES),Potency,"activity, negative = inhibition"
Cc1ccc(-n2nnnc2SCC(=O)N2CCc3ccccc3C2)cc1,"inconclusive [inhibitor, single point]",–
COc1ccc(N2C(=O)C3C(c4ccc(C(=O)O)cc4)NC(Cc4ccccc4)(C(=O)O)C3C2=O)c([N+](=O)[O-])c1 (configuration not stated),active: 11.2 µM,–
O=C(CSc1ccc2nnc(-c3cccnc3)n2n1)N1CCc2ccccc21,"inconclusive [inhibitor, single point]",–
COc1ccc(OC)c(S(=O)(=O)NCCC(C)C)c1,active: 14.1 µM,–
Cc1ccc(NC(=O)CCCCCNS(=O)(=O)c2ccc(C)cc2)cc1,"inconclusive [inhibitor, single point]",–
COc1ccc(CNc2nc(NCc3ccc(OC)cc3)n(C(=O)c3ccccc3[N+](=O)[O-])n2)cc1,active: 20 µM,–
Cc1cc(C(=O)CCl)c(C)n1CCc1ccc(Cl)cc1,active: 0.178 µM,–
C=CCN(CC=C)C(=O)Nc1cc(Cl)ccc1OC,"inconclusive [inhibitor, single point]",–
CC(=O)N1CCn2c3c(c4cc(C)ccc42)CCCC31 (configuration not stated),inactive,–
CCc1ccc2c(c1)c1nc(C)sc1n2CC,active: 31.6 µM,–
Cc1ccc(S(=O)(=O)OCC(=O)O)cc1,–,inactive: -6.05% [at 13.5 µM]
O=C(C1CC1)N1CCc2cc(S(=O)(=O)NCCC3=CCCCC3)ccc21,"inconclusive [inhibitor, single point]",–
CCCOc1ccc(C(=O)N2CCN(c3ccc(N)cc3Cl)CC2)cc1,"inconclusive [inhibitor, single point]",–
CC(C)[C@H](NC(N)=O)C(=O)Nc1ccc(F)c(Cl)c1,inactive,–
CC(C)(C)OC(=O)N1CCC(c2cc(=O)n3[nH]cc(C(=O)NC4CCCC4)c3n2)CC1,"inconclusive [inhibitor, partial curve]",–
CCOC(=O)c1c2ccc(OCC(=O)N/N=C/c3ccc(C)cc3)cc2n2ccccc12,"inconclusive [inhibitor, partial curve]",–
C=CCOc1c2ccc(C(=O)NC3CCCc4ccccc43)cc2nn1C (configuration not stated),"inconclusive [inhibitor, partial curve]",–
COC(=O)C1=CN(C)C=C(C(=O)OC)C1c1ccc(Cl)cc1Cl,"inconclusive [inhibitor, partial curve]",–
Cn1cccc1C(=O)OCC(=O)NC1CCS(=O)(=O)C1 (configuration not stated),inactive,–
O=C(Cc1ccccc1)N1CCN(S(=O)(=O)c2ccc([N+](=O)[O-])cc2)CC1,"inconclusive [inhibitor, single point]",–
COc1ccc(NC(C)=O)cc1S(=O)(=O)Nc1ccc2c(c1)OCCO2,inactive,–
Cc1cc(C)c(C#N)c(SCC(=O)Nc2ccc(S(=O)(=O)Nc3onc(C)c3C)cc2)n1,"inconclusive [inhibitor, single point]",–
CN1C(=O)C(CC(=O)Nc2ccc(Cl)cc2)N(Cc2ccco2)C1=S (configuration not stated),"inconclusive [inhibitor, single point]",–
